Results published in a collection of fitness landscapes (doi:10.1126/science.1257360).
The list shows a part of the results.

B1: PhoQ; a variant is named by its letters at X, in order, P23837 (parent)
chain: MKKLLRLFFPLSLRVRFLLATAAVVLVLSLAYGMVALIGYSVSFDKTTFRLLRGESNLFYTLAKWENNKLHVELPENIDKQSPTMTLIYDENGQLLWAQRDVPWLMKMIQPDWLKSNGFHEIEADVNDTSLLLSGDHSIQQQLQEVREDDDDAEMTHSVAVNVYPATSRMPKLTIVVVDTIPVELKSSYMVWSWFIYVLSANLLLVIPLLWVAAWWSLRPIEALAKEVRELEEHNRELLNPATTRELTSLVRNLNRLLKSERERYDKYRTTLTDLTHSLKTPLXXLQXXLRSLRSEKMSVSDAEPVMLEQISRISQQIGYYLHRASMRGGTLLSRELHPVAPLLDNLTSALNKVYQRKGVNISLDISPEISFVGEQNDFVEVMGNVLDNACKYCLEFVEISARQTDEHLYIVVEDDGPGIPLSKREVIFDRGQRVDTLRPGQGVGLAVAREITEQYEGKIVAGESMLGGARMEVIFGRQHSAPKDE

Variants of: B1
Test: enrichment ratio after two sorts for PhoP signalling (ratio (wild type AVST 3.29)); higher = more functional
Details: with PhoP (E. coli)

Variant	enrichment ratio
KDDF	≤ 0.25
VFFK	≤ 0.25
GLYF	≤ 0.25
DWAT	≤ 0.25
ALIM	1.8
MGPV	≤ 0.25
PGPA	≤ 0.25
SKNC	≤ 0.25
YTHW	≤ 0.25
LDTQ	≤ 0.25
YHFI	≤ 0.25
FIYF	≤ 0.25
YWSL	≤ 0.25
TVRK	≤ 0.25
LMWL	0.616
NQAS	≤ 0.25
RCES	≤ 0.25
GSVS	0.508
MFFP	≤ 0.25
NNAC	≤ 0.25
PLQA	≤ 0.25
IPVP	≤ 0.25
VGTT	≤ 0.25
GKGH	≤ 0.25
SNVS	10.6

Variant	enrichment ratio
WKTV	≤ 0.25
SVQK	0.89
DDKN	≤ 0.25
WPTS	≤ 0.25
IEPD	≤ 0.25
SYRN	≤ 0.25
APEL	≤ 0.25
HMKV	≤ 0.25
YSPE	≤ 0.25
VFSI	≤ 0.25
DKHP	≤ 0.25
YAFA	≤ 0.25
PCSF	≤ 0.25
DVFK	≤ 0.25
RAFT	≤ 0.25
DCMC	≤ 0.25
VWYV	≤ 0.25
YYAY	≤ 0.25
RGSH	≤ 0.25
GNQP	≤ 0.25
FSIV	2.95
IRRY	≤ 0.25
LDEC	≤ 0.25
PQCC	≤ 0.25
WESV	≤ 0.25

Variant	enrichment ratio
YCMG	≤ 0.25
TYDD	≤ 0.25
QPHS	≤ 0.25
ELRI	≤ 0.25
CILH	≤ 0.25
ISAN	≤ 0.25
WEIC	≤ 0.25
WEYF	≤ 0.25
NFSY	≤ 0.25
REEA	≤ 0.25
RNPH	≤ 0.25
RYFM	≤ 0.25
DEKV	≤ 0.25
DHFE	≤ 0.25
LDYR	≤ 0.25
TVHI	2.95
IAIM	≤ 0.25
MNYT	≤ 0.25
HEGR	≤ 0.25
TPVV	≤ 0.25
IGHE	≤ 0.25
GYNR	≤ 0.25
MSQC	≤ 0.25
LGQP	≤ 0.25
WDSR	≤ 0.25

Variant	enrichment ratio
IWDF	≤ 0.25
VVKC	≤ 0.25
RSDY	≤ 0.25
DSAI	≤ 0.25
SLSP	≤ 0.25
QDWE	≤ 0.25
KGVY	≤ 0.25
SMMC	16.1
YHLV	≤ 0.25
FVHN	≤ 0.25
VQWL	≤ 0.25
SEYR	≤ 0.25
VRCM	≤ 0.25
YYWL	≤ 0.25
MFFD	≤ 0.25
ENLI	≤ 0.25
FALD	≤ 0.25
RTYI	≤ 0.25
VWAM	≤ 0.25
KLAR	≤ 0.25
EMYA	≤ 0.25
NTKF	≤ 0.25
VVTF	≤ 0.25
YVTR	≤ 0.25
FVGY	≤ 0.25

Variant	enrichment ratio
NGTE	≤ 0.25
PADP	≤ 0.25
AQVV	6.19
PEPY	≤ 0.25
NLSC	≤ 0.25
SYSD	≤ 0.25
GECA	1.47
KRKA	≤ 0.25
EWKS	≤ 0.25
HHMM	≤ 0.25
VGNT	≤ 0.25
ECTN	≤ 0.25
MENL	≤ 0.25
IMNF	≤ 0.25
NMKG	≤ 0.25
PVMS	≤ 0.25
MVWI	≤ 0.25
EFTD	≤ 0.25
SDMW	≤ 0.25
HRYI	≤ 0.25
VAWC	≤ 0.25
LFVM	≤ 0.25
DRRI	≤ 0.25
VWWK	≤ 0.25
AKRA	≤ 0.25

Variant	enrichment ratio
IPSS	≤ 0.25
ADTG	≤ 0.25
TWHG	≤ 0.25
ARQY	≤ 0.25
HFKD	≤ 0.25
KNMG	≤ 0.25
VDLD	≤ 0.25
ERQW	≤ 0.25
MKQY	≤ 0.25
SKAF	≤ 0.25
VVMN	≤ 0.25
RVDK	≤ 0.25
MGCI	5.38
PVMH	≤ 0.25
MSTN	≤ 0.25
YMHV	≤ 0.25
NRTG	≤ 0.25
RICN	≤ 0.25
QIRR	≤ 0.25
FLAC	≤ 0.25
GTRE	≤ 0.25
NCIA	≤ 0.25
GQNV	≤ 0.25
KIYA	≤ 0.25
HTNI	≤ 0.25

Variant	enrichment ratio
QTHD	≤ 0.25
LLRC	≤ 0.25
WPSN	≤ 0.25
PHLY	≤ 0.25
HQNY	≤ 0.25
YEFY	≤ 0.25
SPNR	≤ 0.25
QFTT	≤ 0.25
YWDA	≤ 0.25
TSIA	2.99
NQWY	≤ 0.25
LKQV	≤ 0.25
WDKV	≤ 0.25
ASYM	3.51
RGDH	≤ 0.25
DEEM	≤ 0.25
TRNG	≤ 0.25
FYGY	≤ 0.25
LREY	≤ 0.25
NALV	≤ 0.25
NTNV	≤ 0.25
MYNS	≤ 0.25
RFQH	≤ 0.25
VCNP	≤ 0.25
KHTK	≤ 0.25

Variant	enrichment ratio
QGYV	11.2
RYST	≤ 0.25
LWVN	≤ 0.25
MHTE	≤ 0.25
LKHD	≤ 0.25
FGRQ	≤ 0.25
SPAS	≤ 0.25
NNCF	≤ 0.25
HCSN	≤ 0.25
MFGW	2.97
HIWM	≤ 0.25
SYQI	0.292
SVHY	≤ 0.25
QRML	≤ 0.25
IKRH	≤ 0.25
WHSE	≤ 0.25
KSMD	≤ 0.25
TEHN	11.9
TRDF	≤ 0.25
EGGY	≤ 0.25
